Results from publication PMC4336329 (PLoS ONE, 2015).
Among all 310,000 compounds or so, about 14,000 (4.5%) showed an effect of 50% or more. The effect is printed as a negative number. Some of the results follow.

molecular target: human ether-à-go-go-related gene (hERG) potassium channel (human, UniProt Q12809); test: primary screen, population patch clamp on CHO cells stably expressing hERG
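Also: peak tail current of the secondary pulse compared with the same well before compound.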

Chain of human ether-à-go-go-related gene (hERG) potassium channel (Q12809 whole entry, looked up): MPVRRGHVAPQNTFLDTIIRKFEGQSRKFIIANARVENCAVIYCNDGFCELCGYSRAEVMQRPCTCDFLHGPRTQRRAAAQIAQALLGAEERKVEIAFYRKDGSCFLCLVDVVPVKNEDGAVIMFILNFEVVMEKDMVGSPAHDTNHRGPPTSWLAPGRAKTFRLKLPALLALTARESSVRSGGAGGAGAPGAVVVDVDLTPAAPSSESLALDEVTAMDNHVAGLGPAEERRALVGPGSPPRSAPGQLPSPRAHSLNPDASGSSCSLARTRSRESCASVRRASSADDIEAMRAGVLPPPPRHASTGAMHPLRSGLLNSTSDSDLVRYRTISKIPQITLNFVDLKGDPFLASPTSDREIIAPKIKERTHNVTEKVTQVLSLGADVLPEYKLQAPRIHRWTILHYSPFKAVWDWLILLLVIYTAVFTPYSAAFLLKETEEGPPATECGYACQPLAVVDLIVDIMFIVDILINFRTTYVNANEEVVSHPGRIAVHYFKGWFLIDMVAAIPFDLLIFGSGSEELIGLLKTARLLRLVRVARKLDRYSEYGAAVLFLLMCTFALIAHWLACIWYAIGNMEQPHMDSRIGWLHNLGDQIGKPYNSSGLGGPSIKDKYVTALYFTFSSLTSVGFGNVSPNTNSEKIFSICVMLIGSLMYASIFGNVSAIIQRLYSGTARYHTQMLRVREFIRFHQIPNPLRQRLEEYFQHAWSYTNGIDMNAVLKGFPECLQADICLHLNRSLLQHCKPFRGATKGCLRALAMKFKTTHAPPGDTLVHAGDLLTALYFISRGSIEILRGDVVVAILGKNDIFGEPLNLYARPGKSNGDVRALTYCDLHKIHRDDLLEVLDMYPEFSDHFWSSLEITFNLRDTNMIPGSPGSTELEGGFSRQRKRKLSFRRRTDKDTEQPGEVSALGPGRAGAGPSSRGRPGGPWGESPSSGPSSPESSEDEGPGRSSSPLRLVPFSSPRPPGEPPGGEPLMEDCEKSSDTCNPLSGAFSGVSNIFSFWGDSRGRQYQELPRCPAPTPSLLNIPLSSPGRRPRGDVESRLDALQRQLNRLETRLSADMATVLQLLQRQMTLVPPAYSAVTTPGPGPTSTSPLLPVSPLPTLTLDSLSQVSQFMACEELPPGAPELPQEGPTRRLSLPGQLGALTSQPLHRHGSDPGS

SMILES | hERG current change (%, negative = inhibition) at 10uM [%]
Cc1ccc(S(=O)(=O)C(NC(=O)c2ccccc2)=C(Cl)Cl)cc1 | 8.78
N#Cc1nc(COc2ccc(F)cc2)oc1NCCN1CCOCC1 | -12.9
CC1CCCCN1CC(=O)NC(c1ccccc1)c1ccccc1.O=C(O)C(=O)O (stereo not shown) | -65.8
COc1ccc(Cn2nnnc2C(C(C)C)N(Cc2ccco2)Cc2cccs2)cc1 (stereo not shown) | 6.54
CN(CC(=O)NCc1ccc2c(c1)OCO2)S(=O)(=O)c1ccc(F)cc1 | -8.53
Cc1nc(N2CCc3ccccc3C2)[nH]c(=O)c1Cc1ccccc1 | 9.21
CCC(=O)N1CCc2cc(Br)cc(S(=O)(=O)CCC(=O)N(CC)CC)c21 | 27.3
CC(C)CN(C(=O)CN1CCN(c2cccc(Cl)c2)CC1)c1c(N)n(CC(C)C)c(=O)[nH]c1=O | 16
Cc1cc(C)nc(N2C(=O)CC(Cc3ccccc3)C2=O)n1 (stereo not shown) | 12.7
Cc1ccsc1-c1nc(CN2CCCC2c2ccc(F)cc2)c(C)o1 (stereo not shown) | 24.9
CC1CCCCN1Cc1nc2c(c(=O)n(C)c(=O)n2C)n1Cc1c(F)cccc1Cl (stereo not shown) | -12.5
O=[N+]([O-])c1ccc(Cl)c([N+](=O)[O-])c1 | -3.52
CC1=NN(C(=O)c2cccnc2)C(O)(C(F)(F)F)C1 (stereo not shown) | 4.35
CC(C)Oc1ccc(NC(=O)c2ccncc2)cc1 | 10.9
Nc1nc(NCC2CCCO2)nc(Nc2ccccc2F)c1[N+](=O)[O-] (stereo not shown) | 25.5
Cc1cccc(Cn2c(=O)c3c(nc4n3CCN4Cc3ccco3)n(C)c2=O)c1 | -52.2
COc1ccc(CCNC(=O)c2ccc(CS(=O)(=O)Cc3cccc(C)c3)o2)cc1OC | 3.27
CN(C)c1nc(Oc2ccc(N)cc2)nc(N(C)C)n1 | 3.67
Cc1cccc(OCC(=O)NCC(=O)N/N=C/c2ccccc2)c1 | 4.9
O=S(=O)(c1ccc2c(c1)OCCO2)N1CCC(n2nnc3cc(F)ccc32)CC1 | -38.7
Cc1cc(S(=O)(=O)NCc2ccc(S(N)(=O)=O)cc2)c(C)s1 | -5.12
CCSc1ccc([C@@H]2[C@H]3C(=O)N(C)C(=O)[C@H]3[C@]3(C(=O)OC)CCCCN23)cc1.O=C(O)C(F)(F)F | 5.34

SMILES | hERG current change (%, negative = inhibition) at 10uM [%]
CCSC1=C(C#N)C(CC(C)C)C2=C(CCCC2=O)N1 (stereo not shown) | 5.34
Cc1cc(N)nc(SCC(=O)N2C(C)CCCC2C)n1 (stereo not shown) | 13.7
CCOc1ccc(C2=Nn3c(nnc3-c3ccc(OC)cc3)SC2)cc1 | -16
Cc1nn(C)c(Cl)c1CN1CCC(Oc2ccc(C(=O)N3CCCC3)cc2)CC1 | -0.868
CC(C)Oc1ccccc1OCCCCn1cnc2ccccc2c1=O | -43.1
O=C(Cn1ccc(=O)[nH]c1=O)Nc1ccc(C(=O)O)c(O)c1 | 23.9
CC(CCc1ccccc1)NC(=O)COC(=O)C1CCC(C(C)(C)C)CC1 (stereo not shown) | 7.2
NC(=O)C1CCN(C(=O)COCc2cc(-c3ccc4c(c3)OCO4)on2)CC1 | 6.4
O=C(COc1ccccc1)NCC(c1ccco1)N1CCCCC1 (stereo not shown) | -15.7
Cc1cc(C)c(C#N)c(SCc2[nH]nc3c2C(c2ccccc2)C(C#N)=C(N)O3)n1 (stereo not shown) | 0.663
CC(O)Cn1ccccc1=N (stereo not shown) | 4.9
O=S(=O)(c1ccccc1)N1CCN(C(=S)Nc2ccc(F)cc2)CC1 | -3.33
Cc1ccc(NC(=O)Cn2c(=O)n(CCCCC(=O)NCc3ccco3)c(=O)c3ccccc32)cc1 | -1.81
CCOC(=O)Cc1cc(=O)n2[nH]c(C(C)(C)C)cc2n1 | 15.5
Cc1c(N)cccc1N | 9.7
COc1ccc2cc(/C(C)=N/NC(=O)C3CC3)ccc2c1 | 1.9
O=C(c1ccc2ccccc2c1)C1CCCN(C(=O)CN2C(=O)CSC2=O)C1 (stereo not shown) | -27.6
Cc1ccc(C(c2nnnn2CCc2ccccc2)N2CCC(C)CC2)cc1.Cl (stereo not shown) | 13.8
COC(=O)C1=C(C)NC2=C(C(=O)CCC2)C1c1cn(Cc2ccc(Cl)cc2Cl)nc1-c1ccccc1 (stereo not shown) | -7.7
O=C(NCC(=O)N(Cc1ccco1)C(C(=O)NC1CCCC1)c1cccnc1)c1ccco1 (stereo not shown) | 14
CCNc1nc(Nc2ccc(C)c(Cl)c2)c2cnn(C)c2n1 | -4.01
